# T1: Chinese hamster ovary (CHO) cell-derived soluble recombinant human G-CSF receptor (R&D Systems, 381-050/CF) (human, UniProt Q99062 25-627)
# T1 construct: extracellular domain; Bought and amine-coupled to a CM5 chip; also called soluble human G-CSF receptor
# T1 sequence (looked up): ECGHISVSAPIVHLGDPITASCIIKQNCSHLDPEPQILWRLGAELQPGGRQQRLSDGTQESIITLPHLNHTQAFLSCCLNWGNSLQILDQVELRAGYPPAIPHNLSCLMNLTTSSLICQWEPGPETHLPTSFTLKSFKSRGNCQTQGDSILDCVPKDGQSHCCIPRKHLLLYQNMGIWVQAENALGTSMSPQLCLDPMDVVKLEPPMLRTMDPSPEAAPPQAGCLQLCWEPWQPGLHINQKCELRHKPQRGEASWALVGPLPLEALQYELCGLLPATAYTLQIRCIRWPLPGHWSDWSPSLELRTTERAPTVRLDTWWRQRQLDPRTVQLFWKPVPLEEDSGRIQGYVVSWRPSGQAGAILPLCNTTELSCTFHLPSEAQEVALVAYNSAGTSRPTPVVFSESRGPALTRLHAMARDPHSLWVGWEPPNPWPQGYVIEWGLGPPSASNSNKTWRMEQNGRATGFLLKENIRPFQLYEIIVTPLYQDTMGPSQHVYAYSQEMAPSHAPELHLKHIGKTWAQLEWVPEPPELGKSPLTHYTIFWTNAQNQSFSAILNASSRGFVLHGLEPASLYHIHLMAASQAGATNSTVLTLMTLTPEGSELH
# B1: Eflapegrastim (^17,65S-G-CSF-PEG-Fc protein complex; Ser^17,65-GCSF-polyethylene glycol-IgG4-Fc) (Fc fusion)
# chain 1: TPLGPASSLPQSFLLKSLEQVRKIQGDGAALQEKLCATYKLCHPEELVLLGHSLGIPWAPLSSCSSQALQLAGCLSQLHSGLFLYQGLLQALEGISPELGPTLDTLQLDVADFATTIWQQMEELGMAPALQPTQGAMPAFASAFQRRAGGVLVASHLQSFLEVSYRVLRHLAQP
# chain 2: [human IgG4 Fc left out]
# modifications: aglycosylated (made in E. coli); N-terminus (proline) of only one of the two Fc chains is linked to the PEG; amino group of the N-terminus linked to one molecule of 3.4 kDa polyethylene glycol dialdehyde (the other PEG end is on the Fc N-terminus)
# notes: also called HM10460A; SPI-2012
# Biological target: T1, Chinese hamster ovary (CHO) …
# Experiment: SPR (BIAcore 3000), receptor amine-coupled to CM5 chip, analyte 5.5-88 nmol/L, 25 C, 1:1 Langmuir fit
binder,measurement,value
B1,Kd,3.6 nM

# — patent US20210008166A1 (SPECTRUM PHARMACEUTICALS, published 2021)
